Measurements reported in US20230312725A1 (JIANGSU HENGRUI PHARMACEUTICALS, published 2023).

Target: human Claudin18.2 (human)
Assay: cell-based or functional assay

ADCC effect, IC50 (ng/ml), NUGC4 cells with high Claudin18.2 expression: 32.2 ng/mL
ADCC effect, IC50 (ng/ml), NUGC4 cells with low Claudin18.2 expression: 35.5 ng/mL
ADCC effect, IC50 (ng/ml), NUGC4 cells with moderate Claudin18.2 expression: 30 ng/mL
B1: h1902-5 (antibody)
heavy: EVQLVQSGAEVKKPGASVKVSCKASGYTFTSYWMHWVRQAPGQRLEWMGMIHPNSGSTNYNEKFKGRVTITRDTSASTAYMELSSLRSEDTAVYYCARLKTGNSFDYWGQGTTVTVSS[human IgG1 constant region omitted here]
light: DIVLTQSPDSLAVSLGERATINCKSSQSLLNSGNQKNYLTWYQQKPGQPPKLLIYWASTRESGVPDRFSGSGSGTDFTLTISSLQAEDVAVYYCQNAYTYPFTFGQGTKLEIKRTVAAPSVFIFPPSDEQLKSGTASVVCLLNNFYPREAKVQWKVDNALQSGNSQESVTEQDSKDSTYSLSSTLTLSKADYEKHKVYACEVTHQGLSSPVTKSFNRGEC
